Experimental data reported in PubChem BioAssay (Tox21).
The shares of active, inactive and inconclusive entries below differ from those in the screen. For some of these results: Potencies of inconclusive entries are doubtful fits and often do not repeat. Where a structure was tested more than once in an assay, its records may differ in their call. Activity calls are given as the source filed them. Unless noted, calls follow the shape of the dose curve; as a rule, active = well fitted curve in the direction sought with a large enough effect in the repeat runs; inconclusive = weak or mixed curves; inactive = no such curve, though single readings can be large; an effect the other way counts as inactive or inconclusive.

How the values were obtained:
[1] = molecular target: Estrogen receptor beta (Homo sapiens) (UniProt Q92731); assay: qHTS assay to identify small molecule agonists of the estrogen receptor beta (ER-beta) signaling pathway (AID 1259377; active = well fitted activation curve with a large enough effect in the signal ratio in the repeat runs, not every such curve was filed as active; inconclusive = weak or mixed curves, or effect the other way; the % refers to the signal ratio; also: potency is read from the fitted curve at half-maximal effect; as to activation: % is scaled to controls: 0 for no effect and ±100 for the full control effect); settings: ER-beta-UAS-bla HEK293T, beta-lactamase FRET ratio, 16 h; activation: at 92.4 µM (top of the series) unless noted
Chain of UniProt Q92731 (Q92731 whole entry, looked up, the tested form may be a part): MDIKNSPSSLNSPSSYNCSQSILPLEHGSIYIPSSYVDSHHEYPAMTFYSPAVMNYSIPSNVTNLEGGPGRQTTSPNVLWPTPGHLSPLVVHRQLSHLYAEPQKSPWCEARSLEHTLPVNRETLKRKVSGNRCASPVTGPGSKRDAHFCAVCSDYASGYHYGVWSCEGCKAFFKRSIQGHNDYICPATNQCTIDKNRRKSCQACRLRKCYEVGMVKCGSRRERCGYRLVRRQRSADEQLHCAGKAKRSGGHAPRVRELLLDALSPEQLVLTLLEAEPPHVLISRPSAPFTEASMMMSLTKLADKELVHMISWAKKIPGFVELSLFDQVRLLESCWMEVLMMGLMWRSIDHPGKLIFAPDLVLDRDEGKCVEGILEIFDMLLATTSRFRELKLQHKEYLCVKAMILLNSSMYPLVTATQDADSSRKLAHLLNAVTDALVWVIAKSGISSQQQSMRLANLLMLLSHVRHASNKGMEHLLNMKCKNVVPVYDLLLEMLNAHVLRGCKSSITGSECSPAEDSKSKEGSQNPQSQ
Outline: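 Agonist mode cell assay in GripTite HEK293T cells expressing an ER-beta fusion that drives beta-lactamase from an Upstream Activator Sequence; 16 hr compound exposure at 37C, then 2 h LiveBLAzer B/G FRET substrate at room temperature, fluorescence read-out.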

[2] = molecular target: Estrogen receptor beta (Homo sapiens) (UniProt Q92731); assay: qHTS assay to identify small molecule antagonists of the estrogen receptor beta (ER-beta) signaling pathway (AID 1259378; active = well fitted inhibition curve with a large enough effect in the signal ratio in the repeat runs, not every such curve was filed as active; inconclusive = weak or mixed curves, or effect the other way; inactive = no such curve, though single readings can be large or run the other way; the % refers to the signal ratio; also: potency is read from the fitted curve at half-maximal effect; as to activity, negative = inhibition: % is scaled to controls: 0 for no effect and ±100 for the full control effect); settings: ER-beta-UAS-bla HEK293T, beta-lactamase FRET ratio, 16 h; activity, negative = inhibition: at 92.4 µM (top of the series) unless noted
Outline: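 ER-beta-UAS-bla HEK293T (GripTite) cells in 2% charcoal-stripped FBS medium were preincubated 6 hr at 37C, dosed with compound, then stimulated with 1 nM E2 (final) for 16 hr; beta-lactamase reporter read by B/G FRET fluorescence after 2 hr substrate loading.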

[3] = molecular target: Progesterone receptor (Homo sapiens) (UniProt P06401); assay: qHTS assay to identify small molecule agonists of the progesterone receptor (PR) signaling pathway (AID 1346784; calls by dose curve; also: % is scaled to controls: 0 for no effect and ±100 for the full control effect; nearly all actives have a fitted effect of over 30% in size); settings: PR-UAS-bla HEK293T, beta-lactamase FRET ratio, 16 h; activation: at 92.4 µM (top of the series) unless noted
Chain of UniProt P06401 (P06401 whole entry, looked up): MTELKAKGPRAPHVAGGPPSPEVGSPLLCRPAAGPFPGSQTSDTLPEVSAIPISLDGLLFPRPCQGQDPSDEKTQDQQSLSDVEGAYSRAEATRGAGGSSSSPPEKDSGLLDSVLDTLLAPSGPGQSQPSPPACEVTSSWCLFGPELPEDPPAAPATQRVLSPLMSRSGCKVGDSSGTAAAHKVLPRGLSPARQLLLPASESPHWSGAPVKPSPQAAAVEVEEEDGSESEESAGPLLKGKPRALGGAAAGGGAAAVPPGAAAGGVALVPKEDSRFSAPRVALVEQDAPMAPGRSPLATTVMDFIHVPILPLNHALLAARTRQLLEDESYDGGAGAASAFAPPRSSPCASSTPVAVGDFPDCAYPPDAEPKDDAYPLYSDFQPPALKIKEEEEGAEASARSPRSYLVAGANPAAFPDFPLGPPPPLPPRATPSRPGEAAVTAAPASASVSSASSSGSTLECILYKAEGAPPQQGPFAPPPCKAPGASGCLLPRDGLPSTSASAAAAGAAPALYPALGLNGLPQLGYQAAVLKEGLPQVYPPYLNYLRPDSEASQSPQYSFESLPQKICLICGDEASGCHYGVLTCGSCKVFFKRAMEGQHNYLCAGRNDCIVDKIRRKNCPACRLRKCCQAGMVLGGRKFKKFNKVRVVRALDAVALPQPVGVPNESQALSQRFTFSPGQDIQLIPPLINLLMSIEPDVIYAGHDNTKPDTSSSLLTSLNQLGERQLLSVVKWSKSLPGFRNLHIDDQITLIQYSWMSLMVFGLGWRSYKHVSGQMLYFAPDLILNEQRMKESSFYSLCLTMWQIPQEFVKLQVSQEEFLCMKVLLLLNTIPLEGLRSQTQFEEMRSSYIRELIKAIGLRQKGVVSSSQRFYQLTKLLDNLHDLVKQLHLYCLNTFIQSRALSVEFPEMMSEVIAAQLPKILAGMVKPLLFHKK
Outline: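 Cells (PR-UAS-bla HEK 293T, GripTite) were plated in assay medium containing 2% charcoal-stripped FBS and incubated 6 hr. Test compounds in DMSO were added for 16 hr at 37C. FRET substrate was then loaded for 2 hr at room temperature before fluorescence reading.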

[4] = molecular target: Progesterone receptor (Homo sapiens) (UniProt P06401); assay: qHTS assay to identify small molecule antagonists of the progesterone receptor (PR) signaling pathway (AID 1346795; active = well fitted inhibition curve with a large enough effect in the signal ratio in the repeat runs, not every such curve was filed as active; inconclusive = weak or mixed curves; the % refers to the signal ratio; also: % is scaled to controls: 0 for no effect and ±100 for the full control effect); settings: PR-UAS-bla HEK293T, beta-lactamase FRET ratio, 16 h; activity change, negative = inhibition: at 92.4 µM (top of the series) unless noted
Outline: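 Antagonist mode: compounds tested against 1 nM (final) promegestone stimulation in HEK293T cells expressing PR-UAS-bla reporter, 16 hr at 37C, 5% CO2; beta-lactamase activity detected via B/G FRET substrate after 2 hr at room temperature.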

[5] = qHTS assay to identify small molecule agonists of the androgen receptor (AR) signaling pathway in the presence of an antagonist - cell viability counter screen (AID 1259379); also: nearly all actives have a fitted effect of over 25% in size; also: potency is read from the fitted curve at half-maximal effect
Outline: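 Cytotoxicity counter-screen run in the same wells as the nilutamide-challenged (3.0 µM final) AR agonist assay in MDA-kb2 cells. Compounds tested at 15 concentrations for 16 h, 37 °C without CO2; CellTiter-Fluor fluorescence read.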

[6] = qHTS assay to identify small molecule antagonists of the estrogen receptor beta (ER-beta) signaling pathway - cell viability counter screen (AID 1259382); also: nearly all actives have a fitted effect of over 55% in size; also: potency is read from the fitted curve at half-maximal effect
Outline: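 Cytotoxicity was measured in the same wells by CellTiter-Glo luminescence after 30 min at room temperature. Cells were ER-beta-bla HEK293T in charcoal-stripped serum, given compound together with 1 nM E2 and incubated 16 h at 37C.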

[7] = molecular target: Thyrotropin receptor (Homo sapiens) (UniProt P16473); assay: qHTS assay to identify small molecule antagonists of the thyroid stimulating hormone receptor (TSHR) signaling pathway (AID 1259385; calls by dose curve; also: nearly all actives have a fitted effect of over 20% in size; also: potency is read from the fitted curve at half-maximal effect; as to activity change, negative = inhibition: % is scaled to controls: 0 for no effect and ±100 for the full control effect); settings: TSHR-HEK293 cAMP HTRF, TSH-stimulated antagonist mode; activity change, negative = inhibition: at 92.4 µM (top of the series) unless noted
Chain of UniProt P16473 (P16473 whole entry, looked up): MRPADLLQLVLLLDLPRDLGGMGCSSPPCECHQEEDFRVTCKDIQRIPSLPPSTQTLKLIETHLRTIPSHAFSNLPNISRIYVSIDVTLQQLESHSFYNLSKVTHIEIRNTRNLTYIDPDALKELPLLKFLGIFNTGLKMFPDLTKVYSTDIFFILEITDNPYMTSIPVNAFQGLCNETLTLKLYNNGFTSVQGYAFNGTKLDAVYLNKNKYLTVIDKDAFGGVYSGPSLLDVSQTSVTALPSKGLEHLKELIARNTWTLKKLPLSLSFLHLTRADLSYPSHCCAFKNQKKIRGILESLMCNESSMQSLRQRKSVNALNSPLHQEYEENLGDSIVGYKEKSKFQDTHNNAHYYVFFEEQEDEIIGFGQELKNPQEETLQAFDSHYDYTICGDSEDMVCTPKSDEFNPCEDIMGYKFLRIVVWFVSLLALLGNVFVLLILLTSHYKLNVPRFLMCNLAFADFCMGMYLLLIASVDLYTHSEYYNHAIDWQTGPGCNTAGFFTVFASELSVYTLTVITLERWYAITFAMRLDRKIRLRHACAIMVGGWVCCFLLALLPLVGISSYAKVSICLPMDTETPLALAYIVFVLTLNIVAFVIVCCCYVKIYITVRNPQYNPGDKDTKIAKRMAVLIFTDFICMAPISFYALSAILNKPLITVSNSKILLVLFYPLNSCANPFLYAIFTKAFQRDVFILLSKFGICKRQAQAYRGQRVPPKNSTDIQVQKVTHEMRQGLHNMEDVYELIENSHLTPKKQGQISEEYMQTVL
Outline: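 TSHR-HEK293 cells were plated and held 18 h at 37C/5% CO2, then given compound plus Ro20-1724 and stimulated with TSH at 1.5 ng/mL final. After 30 min at room temperature, cAMP was detected with cAMP-d2/anti-cAMP-cryptate (1 h) by fluorescence.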

[8] = qHTS assay to identify small molecule antagonists of the TGF-beta/Smad signaling pathway (AID 1346924; active = well fitted inhibition curve with a large enough effect in the signal ratio in the repeat runs, not every such curve was filed as active; inconclusive = weak or mixed curves; the % refers to the signal ratio); settings: SBE-bla HEK293T, TGF-beta/Smad reporter, beta-lactamase ratio; activity, negative = inhibition: at 76.8 µM (top of the series) unless noted
Outline: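 Read-out was FRET-substrate fluorescence (405 nm excitation; 460 and 530 nm emission) after 2 h at room temperature. Before that, cells carrying a Smad-binding-element beta-lactamase reporter in HEK 293T had been stimulated 5 h at 37 C with TGF-beta1 (0.25 ng/mL addition solution) in the presence of test compound.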

[9] = qHTS assay to identify small molecule antagonists of the progesterone receptor (PR) signaling pathway - cell viability counter screen (AID 1346798); also: nearly all actives have a fitted effect of over 50% in size; also: potency is read from the fitted curve at half-maximal effect
Outline: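 Counter screen for cytotoxicity: viability of PR-UAS-bla HEK293T cells was measured with CellTiter-Glo luminescence following 16 hr compound exposure in the presence of R5020.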

[10] = qHTS assay to identify small molecule agonists of the progesterone receptor (PR) signaling pathway - cell viability counter screen (AID 1346799; calls by dose curve; also: nearly all actives have a fitted effect of over 45% in size; also: potency is read from the fitted curve at half-maximal effect)
Outline: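 Cells (PR-UAS-bla HEK293T) are plated at 3,000/well in 2% charcoal-stripped FBS medium, rested 6 hr, dosed and incubated 16 hr at 37C. CellTiter-Glo is then added and luminescence measured after 30 min at room temperature.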

[11] = qHTS assay to identify small molecule agonists of the estrogen receptor alpha (ER-alpha) signaling pathway in the presence of an antagonist - cell viability counter screen (AID 1259386); also: potency is read from the fitted curve at half-maximal effect; nearly all actives have a fitted effect of over 30% in size
Outline: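 Compounds tested at 15 concentrations for 22 h at 37C alongside 10.0nM (final) ICI-182,780 antagonist, in VM7Luc4E2 cells grown in phenol red-free, charcoal-stripped medium. Viability read by CellTiter-Fluor fluorescence after 1 h reagent incubation.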

[12] = qHTS assay to identify small molecule agonists of the TGF-beta/Smad signaling pathway - cell viability counter screen (AID 1346829); also: potency is read from the fitted curve at half-maximal effect; nearly all actives have a fitted effect of over 45% in size
Outline: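 HEK 293T SBE-bla line, 5 hr compound exposure at 37 C, multiplexed CellTiter-Glo viability read by luminescence.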

[13] = qHTS assay to identify small molecule agonists of the TGF-beta/Smad signaling pathway (AID 1346859; active = well fitted activation curve with a large enough effect in the signal ratio in the repeat runs, not every such curve was filed as active; inconclusive = weak or mixed curves; the % refers to the signal ratio; also: potency is read from the fitted curve at half-maximal effect); settings: SBE-bla HEK293T, TGF-beta/Smad beta-lactamase reporter, 5 h; activation: at 76.8 µM (top of the series) unless noted
Outline: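 Reporter line: HEK 293T with stably integrated SBE-controlled beta-lactamase. Compound exposure lasts 5 hr at 37 C and 5% CO2; substrate loading follows for 2 hr at room temperature, with emission read at 460 and 530 nm.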

[14] = molecular target: Thyrotropin-releasing hormone receptor (Homo sapiens) (UniProt P34981); assay: qHTS assay to identify small molecule antagonists of the thyrotropin-releasing hormone receptor (TRHR) signaling pathway (AID 1346877; active = well fitted inhibition curve with a large enough effect in the repeat runs, not every such curve was filed as active; inconclusive = weak or mixed curves; also: potency is read from the fitted curve at half-maximal effect)
Chain of UniProt P34981 (P34981 whole entry, looked up): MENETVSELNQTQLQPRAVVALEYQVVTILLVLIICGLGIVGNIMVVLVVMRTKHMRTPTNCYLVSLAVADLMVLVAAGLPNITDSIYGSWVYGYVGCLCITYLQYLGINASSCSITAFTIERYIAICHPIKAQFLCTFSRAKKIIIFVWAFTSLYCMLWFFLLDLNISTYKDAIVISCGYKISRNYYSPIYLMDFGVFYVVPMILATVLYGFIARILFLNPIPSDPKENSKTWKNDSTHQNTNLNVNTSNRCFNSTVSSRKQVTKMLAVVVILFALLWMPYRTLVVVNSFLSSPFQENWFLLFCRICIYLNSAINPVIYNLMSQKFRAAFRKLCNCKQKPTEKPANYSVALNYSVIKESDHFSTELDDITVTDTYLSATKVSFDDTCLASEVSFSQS
Outline: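 Antagonist mode: after a 5 min room-temperature compound exposure, cells were stimulated with 1 nM (final) TRH. Dye-loaded TRHR-HEK293 cells were used, and calcium-dependent fluorescence was followed for 3 min, with 15-point titrations run in triplicate.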

[15] = qHTS assay to identify small molecule agonists of the estrogen receptor beta (ER-beta) signaling pathway - cell viability counter screen (AID 1259380); also: % is scaled to controls: 0 for no effect and ±100 for the full control effect; nearly all actives have a fitted effect of over 30% in size
Outline: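 Cell viability counter screen: CellTiter-Glo luminescence (30 min, room temperature) measured in the same wells as the beta-lactamase readout, after 16 hr compound exposure at 37C of ER-beta-bla HEK293T cells in 2% charcoal-stripped FBS medium.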
Tags tell the direction and shape of the fitted curve or compound fluorescence and quenching.

**Q.** What does the source list for `C/C=C(/C(=C/C)c1ccc(O)cc1)c1ccc(O)cc1`?
**A.** Potency [1]: active: 0.0019 µM; Potency [2]: inconclusive: 5.31 µM [activator, partial curve, poor fit]; Potency [3]: inactive; activity change, negative = inhibition [4]: inconclusive: -73.7% [at 42.5 µM]

**Q.** With `CCCCC/C=C\C=C\C(=O)OCC` as the molecule, how does the Potency [1] read?
**A.** inconclusive: 0.0715 µM [rising, full curve]

**Q.** And the Potency [5]?
**A.** inconclusive: 71.5 µM [cytotoxic]

**Q.** And the Potency [6]?
**A.** inconclusive: 71.5 µM [cytotoxic, partial curve, poor fit]

**Q.** And the Potency [7]?
**A.** inactive

**Q.** And the Potency [4]?
**A.** inactive

**Q.** And the activity, negative = inhibition [8]?
**A.** inconclusive: 9.64%

**Q.** With `CCOC(=O)[C@@](C)(N)Cc1ccc(O)c(O)c1` as the molecule, how does the Potency [1] read?
**A.** inconclusive: 33.5 µM [rising, single point]

**Q.** What about the activity, negative = inhibition [2] of the same molecule?
**A.** inconclusive: 7.38% [at 42.5 µM]

**Q.** What about the Potency [9] of the same molecule?
**A.** inconclusive: 18.8 µM [rising, partial curve]

**Q.** And the Potency [10]?
**A.** inconclusive: 29.8 µM [rising, single point]

**Q.** With `CC(=O)Oc1ccccc1C(=O)O` as the molecule, how does the Potency [1] read?
**A.** inactive

**Q.** What about the Potency [5] of the same molecule?
**A.** inactive

**Q.** And the activity change, negative = inhibition [4]?
**A.** inconclusive: 1.31%

**Q.** What about the Potency [10] of the same molecule?
**A.** inconclusive: 2.71 µM [cytotoxic, single point]

**Q.** Which results are given for `NC(=Nc1ccccc1)Nc1ccccc1`?
**A.** Potency [1]: inconclusive: 27.3 µM [activator, single point]; Potency [5]: inconclusive: 5.45 µM [cytotoxic, full curve] and inactive; Potency [6]: inactive; Potency [7]: inconclusive: 172 nM [phenotype inactive, partial curve, poor fit]; Potency [11]: inconclusive: 12.2 µM [cytotoxic]; activity change, negative = inhibition [4]: inconclusive: 9.03% [phenotype inactive]; Potency [9]: inconclusive: 19.3 µM [rising, full curve]; Potency [10]: inconclusive: 12.2 µM and inactive; Potency [12]: inconclusive: 34.7 µM [rising, partial curve, poor fit]; Potency [13]: inconclusive: 61.6 µM [rising, partial curve, poor fit]; Potency [14]: active: 10.1 µM

**Q.** With `O=C(O)C1CCC(C(=O)O)CC1` (configuration not stated) as the molecule, how does the Potency [1] read?
**A.** inactive

**Q.** What about the Potency [15] of the same molecule?
**A.** inactive

**Q.** And the Potency [7]?
**A.** inactive

**Q.** Which Potency [1] does the source give for `CCC(N)(CO)CO` here?
**A.** inactive

**Q.** And the Potency [13]?
**A.** inactive

**Q.** With `CC(CO)(CO)C(=O)O` as the molecule, how does the Potency [1] read?
**A.** inactive

**Q.** What about the activity change, negative = inhibition [4] of the same molecule?
**A.** inconclusive: 10.3%

**Q.** And the Potency [9]?
**A.** inactive
